Sequences and labels used below:
B1: LINE1-mini (parent)
chain: GGCAGAGCUCAACACAGCGUGGCAAAGUGGCUGUGGCUAGACUGCC

The source gives no read counts; variants with many changes may rest on few reads.

Variants of B1 are the subject of this data set. In words: self-cleavage, relative activity (ratio to wild type); higher = more cleavage; in vitro, sequencing; the parent is a self-cleaving ribozyme.
With GGUUGGGCUUAACACAGCGUGGCAAAGUGGCGGUGGCUAGACUGCC [C3U A4U A6G C10U U32G], the self-cleavage was 0.04.
Consider GACACAUCUCAACACAGGGUGGCAAAGGGACUGUGGCAAGACUGCC [G2A G5C G7U C18G U28G G30A U38A], for which the self-cleavage is 0.08.
For GGCAGAGCUCAAGUAAGCGUGGCAAAGUGGCUGUGGCUAAACUGCC [C13G A14U C15A G40A], the self-cleavage amounted to 0.21.
For GGCAGAGCUCAAGACAGCGUGGGAAAGUGGCUGUGGCUAUACUGCC [C13G C23G G40U], the self-cleavage worked out at 0.12.
Take GGCAGAGCUCAACCCAGCGUGGCAAAGUGGCUCUGUCUAGACUGCC [A14C G33C G36U]: the self-cleavage came to 0.03.
With GGCAGAGCUCAACACACUGCGGCAAAGUGGCUGUGGCUAGACAGCC [G17C C18U U20C U43A] the figure was 0.01; with GGCAUAGCUCAAGACAACGUGACAAAGUGGCUGAGGCUAGACUGCC [G5U C13G G17A G22A U34A], 0.03.
Consider GGCAGAGCUCAACACAGCGUGGGAAAAUGGCUGUGGAUAGACUGCC [C23G G27A C37A], for which the self-cleavage was 0.06.
As for GGCAGAGCUCAACACAUCGUCGCAAAGUGGCUGUGGCUCGACUGCC [G17U G21C A39C], the self-cleavage stood at 0.11.
As for GGCAGAGCUCAACACAGUGUGGCAAAGUGGCUGUGUCUAGACAGCC [C18U G36U U43A], the figure is 0.02; as for GGCAGAGCUCAACACAGGGUGGUAAACUGGCUGUGGCUAGACUGCC [C18G C23U G27C], 0.47; as for GGCAGAGCUCAACACUGCGUGGCAAAGUGACUGUGGAUAGACUGCC [A16U G30A C37A], 0.1.
On to GACAGAGCUCAACACAGCGUGGCACAGUGGCUGUGGCUUGGCUGCC [G2A A25C A39U A41G], for which the self-cleavage amounted to 0.21.
Consider GGUAGAGCUCACCACAGCGUGGCAAAGAGGCUGUGGCUAGACUGAC [C3U A12C U28A C45A], for which the self-cleavage amounted to 0.02.
As for GCCAGAGCUCAACACAGCCUGUCAAAGUGGCUGUGGCUAGACUGCC [G2C G19C G22U], the figure is 0.04; as for GUCCGAGCUCAACACAGCGUGGCAAAGGGGCUGUGGCUAGACUGCC [G2U A4C U28G], 0.03.
As for GUCAGAGCUCAACACAGCCUAGCAAAGUGGCUGUGGCUAGACUGCC [G2U G19C G21A], the self-cleavage turned out to be 0.08.
GGCAGCGCUCAACACAGCGUGGCUUAGUGGCUGUGGCUAGACUGCC [A6C A24U A25U]: the self-cleavage worked out at 0.26.
Take GGCAGAGUUCAACACAGCAUGGCAAAGUGGCUGUGCCUCGACUGCG [C8U G19A G36C A39C C46G]: the self-cleavage came to 0.02.
Take GGCUGAGCUCAACACAGCGUGGCAAAGGGGCUGUGGCUAAACUGCC [A4U U28G G40A]: the self-cleavage turned out to be 0.09.
Regarding GGCAGUGCUCAACACAGCGUGGCAAAGUGGCUGUGGCGCGACUGCC [A6U U38G A39C], the self-cleavage turned out to be 0.03.
Turning to GGCACACCUCCACACAACGUGGCAAAGUGGCUGUGGAUAGACUGCC [G5C G7C A11C G17A C37A], the self-cleavage was 0.02.
As for GGCAGAGCUCAACACAACGUGGCAAAGUGCCUGUGGCUAGACUGGC [G17A G30C C45G], the self-cleavage came to 0.04.
With GGCAGAGCCCAACACAGCGUGGGAAAGUGGCUGUGGGUAGACUGCC [U9C C23G C37G], the self-cleavage worked out at 0.02.
For CGAAGAGAUCAACACAGCUUGGCAAAGUGCCUGUAGCUAGACUCCC [G1C C3A C8A G19U G30C G35A G44C], the self-cleavage worked out at 0.96.
Turning to GGCCGAGCUCAACACAGCGUGGGAAAGUGGCUGUGGCCAGACUGCU [A4C C23G U38C C46U], the self-cleavage was 0.06.
As for GGCAGAGCUCAACACAGCAUGGCAAAGUGGCUGUGGCUGGACUGCU [G19A A39G C46U], the self-cleavage worked out at 0.03.
On to GGGAGAGCUCAACACAACAUGGCAGACUGGCUGUCGACAGACUGCC [C3G G17A G19A A25G G27C G35C C37A U38C], for which the self-cleavage was found to be 0.04.
With GACAGAGCUCAACACAGCGUGGCAUAGUGGAUGCGGCUAGACUGCC [G2A A25U C31A U34C] the figure was 0.11.
As for GGCAGUGCUCAGCACAGCGUGGCAAAGCGGGUGUGGCUAGACUGCA [A6U A12G U28C C31G C46A], the self-cleavage amounted to 0.16.
GGCAGAGCUAAACACAUCGUGGCAAAUUGGCUGUGGCUAGACUGCC [C10A G17U G27U]: the self-cleavage is 0.02.
As for GGCAGAGCUCAACCCAGCGUGGCAAAGUGGUUGUGGCUACACUGCC [A14C C31U G40C], the self-cleavage turned out to be 0.02.
Take GGUAGGGCUCAACACAGCGUGGCAAAGUGGCUGUGGCUAGUCUGCC [C3U A6G A41U]: the self-cleavage worked out at 0.1.
As for GGCAGAGCUCAACAAAGCGUGACAAAGUGGCUUUGGCUAGUCUGCC [C15A G22A G33U A41U], the figure is 0.96.
On to GUAAGAGCACAACAGAGCGAGGCAAAGUGGCUGUGGCUAGACUGCC [G2U C3A U9A C15G U20A], for which the self-cleavage was 0.12.
Take GGAAGUGCUCAACAAAGCCUGGUAAAGUGGCUGUGGGUAGACUGCC [C3A A6U C15A G19C C23U C37G]: the self-cleavage was found to be 0.11.
Take GGAAAAGCUCAACACAGUGUUGCAAAGUGGCUGUGGCUAGACUGCC [C3A G5A C18U G21U]: the self-cleavage turned out to be 0.9.
Consider GGCAGAGCUCAACACUGCGUGGCAAAGUGGCGUUGGCUAGACUGCC [A16U U32G G33U], for which the self-cleavage worked out at 0.01.
As for GGCAGAGAUCAACACAGCCUGGAAAAGUGGCUGUGGCUCGACUUCC [C8A G19C C23A A39C G44U], the self-cleavage turned out to be 0.06.
For GGCAGAGCUUAACACAGCGUGGAACAGUGGCUAUGGUUAGACUGCC [C10U C23A A25C G33A C37U], the self-cleavage stood at 0.03.
Consider GGCCGAGCUCAUCACAGCGUGGCAAAGUGAGUGUGGCUAGACUGCC [A4C A12U G30A C31G], for which the self-cleavage was determined as 0.03.
Consider GGCAGAGCUAAUCACAGCGUGUCAAAGUGGCUUUGGCUAGACUGCC [C10A A12U G22U G33U], for which the self-cleavage was 0.02.
Take GGCAGAGAUCAACACACCGUGGCGAAGUGGCUGUGGCUAGCCUACC [C8A G17C A24G A41C G44A]: the self-cleavage was found to be 0.09.
Consider GGCAGAGUUCAACGCAGCGUGGCAAAUUGGCUGUGGCUAGACCGCC [C8U A14G G27U U43C], for which the self-cleavage worked out at 0.24.
As for GGCAGAGCUCCCCACAUCGUGGCAAAGCGGCUGUGGCUAGACUGCU [A11C A12C G17U U28C C46U], the figure is 0.01.
As to GGCAAAUCUCUACACAGCGUGGCAAAGUGGCUGUGGAUAGACUGCC [G5A G7U A11U C37A], the self-cleavage came to 0.01.
Consider GGAAGAGCACAGCACAGCGUGGCAAAGUGGCUGUGGCUAGACUACC [C3A U9A A12G G44A], for which the self-cleavage was determined as 0.03.
GGCAGAGCUCAACACCGCGUGGCAAAGUCGCUGUGGCUAGACUGAC [A16C G29C C45A]: the self-cleavage worked out at 0.14.
On to GGCAGAGCUCAACACAGCGUGGCAAGGUGGCUCUGGCUAAACUGCU [A26G G33C G40A C46U], for which the self-cleavage was found to be 0.1.
On to GGCAGAGCGCAACACAGCGUGGCAAUGUGGCUGUGGCUAGACUGAC [U9G A26U C45A], for which the self-cleavage came to 0.05.
For the variant GGCAGAGCUCAAUACAGCGUGGUAAAGUGGCUGUGGUUAGACUGCC [C13U C23U C37U], the self-cleavage was determined as 0.81.
Turning to GUCAGAGCUCACCCCAGCGUGGCAAAGUGGCUGUGGUUAGACUGCC [G2U A12C A14C C37U], the self-cleavage was 0.02.
Consider GGCAGAGCUCAACACAGCGUGGCAAAGUUGCUGCGGCUAGACUGAC [G29U U34C C45A], for which the self-cleavage was found to be 0.08.
On to GGCAGAGCUCUACACAGCGUGGCAAAGUGGAUGUGGCUAUAUAGCC [A11U C31A G40U C42U U43A], for which the self-cleavage was 0.03.
With GGCGGAGCUCAACACAGCGUGGUAAAGUGGCUGUGGCUGGACUGCC [A4G C23U A39G], the self-cleavage is 0.22.
On to GGCAGAGAUCAACACAGCGUGGCGAAGUGGCUGUGGUUAAACUGCA [C8A A24G C37U G40A C46A], for which the self-cleavage was determined as 0.08.

These data come from the RNAGym collection of RNA variant scans (doi:10.7554/elife.90254).
